Measurements as given in the supplement of paper PMC8728848.
Some of the results follow.

Legend:
Test in all cases: glycan array binding signal (z-score within array); higher = stronger binding
Conditions in all cases: glycan notation: IUPAC condensed, linker removed
[1] = target: Neu5Ac(a2-3)Gal(b1-4)GlcNAc(b1-2)Man(a1-3)[Neu5Ac(a2-3)Gal(b1-4)GlcNAc(b1-2)Man(a1-6)]Man(b1-4)GlcNAc(b1-4)[Fuc(a1-6)]GlcNAc
Procedure, shortened: (§1)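 Columns mapping to the same glycan were averaged after glycan names were converted to IUPAC-condensed notation. The data come from 3228 arrays in the Consortium for Functional Glycomics database, limited to those with an available protein sequence. Binding is reported as a within-array Z-score averaged across arrays of one protein sequence and across linkers.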

[2] = target: Neu5Ac(a2-3)Gal(b1-4)GlcNAc(b1-2)Man(a1-3)[Neu5Ac(a2-6)Gal(b1-4)GlcNAc(b1-2)Man(a1-6)]Man(b1-4)GlcNAc(b1-4)GlcNAc
Procedure, shortened: as §1

[3] = target: Neu5Ac(a2-3)Gal(b1-4)GlcNAc(b1-2)[Neu5Ac(a2-3)Gal(b1-4)GlcNAc(b1-4)]Man(a1-3)[GlcNAc(b1-4)][Neu5Ac(a2-3)Gal(b1-4)GlcNAc(b1-2)[Neu5Ac(a2-3)Gal(b1-4)GlcNAc(b1-6)]Man(a1-6)]Man(b1-4)GlcNAc(b1-4)GlcNAc
Procedure, shortened: as §1

[4] = target: Neu5Ac(a2-3)Gal(b1-4)GlcNAc(b1-2)[Neu5Ac(a2-3)Gal(b1-4)GlcNAc(b1-4)]Man(a1-3)[GlcNAc(b1-4)][Neu5Ac(a2-3)Gal(b1-4)GlcNAc(b1-4)Man(a1-6)]Man(b1-4)GlcNAc(b1-4)GlcNAc
Procedure, shortened: as §1

[5] = target: Neu5Ac(a2-3)Gal(b1-4)GlcNAc(b1-2)[Neu5Ac(a2-3)Gal(b1-4)GlcNAc(b1-6)]Man(a1-6)[Neu5Ac(a2-3)Gal(b1-4)GlcNAc(b1-2)Man(a1-3)]Man(b1-4)GlcNAc(b1-4)GlcNAc
Procedure, shortened: as §1

[6] = target: Neu5Ac(a2-3)Gal(b1-4)GlcNAc(b1-2)[Neu5Ac(a2-3)Gal(b1-4)GlcNAc(b1-6)]Man(a1-6)[Neu5Ac(a2-3)Gal(b1-4)GlcNAc(b1-2)Man(a1-3)][GlcNAc(b1-4)]Man(b1-4)GlcNAc(b1-4)GlcNAc
Procedure, shortened: as §1

[7] = target: Neu5Ac(a2-3)Gal(b1-4)GlcNAc(b1-3)Gal
Procedure, shortened: as §1

[8] = target: Neu5Ac(a2-3)Gal(b1-4)GlcNAc(b1-3)Gal(b1-3)GlcNAc
Procedure, shortened: as §1

[9] = target: Neu5Ac(a2-3)Gal(b1-4)GlcNAc(b1-3)Gal(b1-4)GlcNAc
Procedure, shortened: as §1

[10] = target: Neu5Ac(a2-3)Gal(b1-4)GlcNAc(b1-3)Gal(b1-4)GlcNAc(b1-2)Man(a1-3)[Neu5Ac(a2-3)Gal(b1-4)GlcNAc(b1-3)Gal(b1-4)GlcNAc(b1-2)Man(a1-6)]Man(b1-4)GlcNAc(b1-4)GlcNAc
Procedure, shortened: as §1

[11] = target: Neu5Ac(a2-3)Gal(b1-4)GlcNAc(b1-3)Gal(b1-4)GlcNAc(b1-3)Gal(b1-4)GlcNAc
Procedure, shortened: as §1

[12] = target: Neu5Ac(a2-3)Gal(b1-4)GlcNAc(b1-3)Gal(b1-4)GlcNAc(b1-3)Gal(b1-4)GlcNAc(b1-2)Man(a1-3)[Neu5Ac(a2-3)Gal(b1-4)GlcNAc(b1-3)Gal(b1-4)GlcNAc(b1-3)Gal(b1-4)GlcNAc(b1-2)Man(a1-6)]GalNAc
Procedure, shortened: as §1

[13] = target: Neu5Ac(a2-3)Gal(b1-4)GlcNAc(b1-3)Gal(b1-4)GlcNAc(b1-3)GalNAc
Procedure, shortened: as §1

[14] = target: Neu5Ac(a2-3)Gal(b1-4)GlcNAc(b1-3)Gal(b1-4)GlcNAc(b1-3)[Neu5Ac(a2-3)Gal(b1-4)GlcNAc(b1-3)Gal(b1-4)GlcNAc(b1-6)]GalNAc
Procedure, shortened: as §1

[15] = target: Neu5Ac(a2-3)Gal(b1-4)GlcNAc(b1-3)Gal(b1-4)GlcNAc(b1-6)[Gal(b1-3)]GalNAc
Procedure, shortened: as §1

[16] = target: Neu5Ac(a2-3)Gal(b1-4)GlcNAc(b1-3)Gal(b1-4)[Fuc(a1-3)]GlcNAc
Procedure, shortened: as §1

[17] = target: Neu5Ac(a2-3)Gal(b1-4)GlcNAc(b1-3)GalNAc
Procedure, shortened: as §1

[18] = target: Neu5Ac(a2-3)Gal(b1-4)GlcNAc(b1-3)[Neu5Ac(a2-3)Gal(b1-4)GlcNAc(b1-6)]GalNAc
Procedure, shortened: as §1

[19] = target: Neu5Ac(a2-3)Gal(b1-4)GlcNAc(b1-6)GalNAc
Procedure, shortened: as §1

[20] = target: Neu5Ac(a2-3)Gal(b1-4)GlcNAc(b1-6)[Gal(b1-3)]GalNAc
Procedure, shortened: as §1

[21] = target: Neu5Ac(a2-3)Gal(b1-4)GlcNAc(b1-6)[Neu5Ac(a2-3)Gal(b1-3)]GalNAc
Procedure, shortened: as §1

[22] = target: Neu5Ac(a2-3)Gal(b1-4)GlcNAc6S
Procedure, shortened: as §1

[23] = target: Neu5Ac(a2-3)Gal(b1-4)[Fuc(a1-3)]GlcNAc
Procedure, shortened: as §1

[24] = target: Neu5Ac(a2-3)Gal(b1-4)[Fuc(a1-3)]GlcNAc(b1-2)Man
Procedure, shortened: as §1

[25] = target: Neu5Ac(a2-3)Gal(b1-4)[Fuc(a1-3)]GlcNAc(b1-3)Gal
Procedure, shortened: as §1

[26] = target: Neu5Ac(a2-3)Gal(b1-4)[Fuc(a1-3)]GlcNAc(b1-3)Gal(b1-4)GlcNAc
Procedure, shortened: as §1

[27] = target: Neu5Ac(a2-3)Gal(b1-4)[Fuc(a1-3)]GlcNAc(b1-3)Gal(b1-4)[Fuc(a1-3)]GlcNAc(b1-3)Gal(b1-4)[Fuc(a1-3)]GlcNAc
Procedure, shortened: as §1

[28] = target: Neu5Ac(a2-3)Gal(b1-4)[Fuc(a1-3)]GlcNAc(b1-3)GalNAc
Procedure, shortened: as §1

[29] = target: Neu5Ac(a2-3)Gal(b1-4)[Fuc(a1-3)]GlcNAc(b1-6)[Gal(b1-3)]GalNAc
Procedure, shortened: as §1

[30] = target: Neu5Ac(a2-3)Gal(b1-4)[Fuc(a1-3)]GlcNAc(b1-6)[Neu5Ac(a2-3)Gal(b1-3)]GalNAc
Procedure, shortened: as §1

[31] = target: Neu5Ac(a2-3)Gal(b1-4)[Fuc(a1-3)]GlcNAc6S
Procedure, shortened: as §1

[32] = target: Neu5Ac(a2-3)Gal6S(b1-4)GlcNAc
Procedure, shortened: as §1

[33] = target: Neu5Ac(a2-3)Gal6S(b1-4)[Fuc(a1-3)]GlcNAc
Procedure, shortened: as §1

[34] = target: Neu5Ac(a2-3)GalNAc
Procedure, shortened: as §1

[35] = target: Neu5Ac(a2-3)GalNAc(b1-4)GlcNAc
Procedure, shortened: as §1

[36] = target: Neu5Ac(a2-3)[GalNAc(b1-4)]Gal(b1-4)Glc
Procedure, shortened: as §1

[37] = target: Neu5Ac(a2-3)[GalNAc(b1-4)]Gal(b1-4)GlcNAc
Procedure, shortened: as §1

B1: Epa9 (Candida glabrata), CAGL0A01386g (protein)
chain: MGSSHHHHHHSSGLVPRGSHMDITPFAHYPRPEGCSSPPNAVSVGLHMDLYNYPYLYVKNPRTGFTNDTDSDADGETDGDSAGGIEGRAGQCWNPEYQDPNFPRYGYKKYGSFGSSDHVNGKISWDHNEFKEGCKPIMARLPTAYNYPAKITFSNFTMVLSGYFKPKSTGLYKFEIHADDFILFNFGSKNAFECCNREESIDNFGPYVAYAMWPNEADQELEVYLFEDSYYPIRLFYNNRDYHSKFMVGFYPPNTEEITYDFDGYLYMLDDTGNECKDSIRYKTVCDD
[1]
  glycan array binding signal (z-score): -0.466
[2]
  glycan array binding signal (z-score): -0.429
[3]
  glycan array binding signal (z-score): -0.447
[4]
  glycan array binding signal (z-score): -0.429
[5]
  glycan array binding signal (z-score): -0.439
[6]
  glycan array binding signal (z-score): -0.453
[7]
  glycan array binding signal (z-score): -0.478
[8]
  glycan array binding signal (z-score): -0.478
[9]
  glycan array binding signal (z-score): -0.441
[10]
  glycan array binding signal (z-score): 0.335
[11]
  glycan array binding signal (z-score): -0.407
[12]
  glycan array binding signal (z-score): -0.275
[13]
  glycan array binding signal (z-score): -0.387
[14]
  glycan array binding signal (z-score): 0.398
[15]
  glycan array binding signal (z-score): 0.423
[16]
  glycan array binding signal (z-score): -0.587
[17]
  glycan array binding signal (z-score): -0.466
[18]
  glycan array binding signal (z-score): -0.436
[19]
  glycan array binding signal (z-score): -0.495
[20]
  glycan array binding signal (z-score): 0.798
[21]
  glycan array binding signal (z-score): -0.464
[22]
  glycan array binding signal (z-score): -0.442
[23]
  glycan array binding signal (z-score): -0.44
[24]
  glycan array binding signal (z-score): -0.452
[25]
  glycan array binding signal (z-score): -0.474
[26]
  glycan array binding signal (z-score): -0.253
[27]
  glycan array binding signal (z-score): -0.479
[28]
  glycan array binding signal (z-score): 0.004
[29]
  glycan array binding signal (z-score): -0.217
[30]
  glycan array binding signal (z-score): -0.256
[31]
  glycan array binding signal (z-score): -0.455
[32]
  glycan array binding signal (z-score): -0.488
[33]
  glycan array binding signal (z-score): -0.477
[34]
  glycan array binding signal (z-score): -0.492
[35]
  glycan array binding signal (z-score): -0.465
[36]
  glycan array binding signal (z-score): -0.447
[37]
  glycan array binding signal (z-score): -0.462
